# According to the RNAGym collection of RNA variant scans (doi:10.7554/elife.90254):
# The source gives no read counts; variants with many changes may rest on few reads.
# B1: LINE1-mini (parent)
# chain: GGCAGAGCUCAACACAGCGUGGCAAAGUGGCUGUGGCUAGACUGCC
# Variants of: B1
# Test: self-cleavage, relative activity (ratio to wild type); higher = more cleavage; in vitro, sequencing; the parent is a self-cleaving ribozyme
row,Variant,self-cleavage
1,G5C G27A C45A,0.31
2,G5C G27A G29U C31A,0.05
3,G5C G27A G36U C45G,0.01
4,G5C G27C C31G,0.03
5,G5C G27C C37A,0.03
6,G5C G27C C42G G44U,0.05
7,G5C G27C G33C G35A,0.02
8,G5C G27U G35A G44U,0.05
9,G5C G27U U28C G35A,0.08
10,G5C G29A C46U,0.22
11,G5C G29C A39C,0.03
12,G5C G29U G30U G33A,0.05
13,G5C G29U G33A G44U,0.79
14,G5C G30C G35A,0.06
15,G5C G30U A39C,0.04
16,G5C G33U U38C,0.04
17,G5C G35U A41U C46U,0.04
18,G5C G36C C37A C46U,0.05
19,G5C G36U C37U A41C,0.01
20,G5C U9A A11G C23A,0.01
21,G5C U9A A25U,0.05
22,G5C U9A C10U,0.03
23,G5C U9A C31U,0.08
24,G5C U9A G17A U38G,0.12

row,Variant,self-cleavage
1,G5C U9A G36C,0.06
2,G5C U9C A14C U43A,0.01
3,G5C U9C G29A,0.03
4,G5C U9C G35A A39U A41U,0.01
5,G5C U9G C10G C15U U28G U32A U38C,0.01
6,G5C U9G C13U U20G C46U,0.03
7,G5C U20A C23A G27C G33A,0.02
8,G5C U20C G21U,0.13
9,G5C U20C G21U A25G U32A G33C C37G,0
10,G5C U20C G30A,0.04
11,G5C U20C G40U,0.09
12,G5C U32C C37U,0.01
13,G5C U32C G44U,0.03
14,G5C U32G G36U U38G,0.03
15,G5C U32G U34G A41G,0.02
16,G5C U34G C37A,0.04
17,G5C U34G C46A,0.01
18,G5U A6C A26U U43C,0.06
19,G5U A6C C8G C10U A11G G35C U43A,0.01
20,G5U A6C G19U C23U G27U,0.08
21,G5U A6C G27C,0.11
22,G5U A6C U20A C23U G35U C45A,0.03
23,G5U A6C U28G U38C,0.06
24,G5U A6G C8G A12G A26C G44C,0.02

row,Variant,self-cleavage
1,G5U A6G C10U C13G G30C G35U A39U,0.02
2,G5U A6G C15A U20G,0.05
3,G5U A6G C15U U20A G21C A41U,0.01
4,G5U A6G C46U,0.11
5,G5U A6G G22C G33U G40U,0
6,G5U A6U C8U C10A G44U C45A,0.05
7,G5U A6U C10A,0.04
8,G5U A6U G17C C42A,0.55
9,G5U A11C C15G C23A C46A,0.02
10,G5U A11C G29A G35A G44A,0
11,G5U A11G A16C,0.04
12,G5U A11G A16C C31U,0.04
13,G5U A11G C13A G19A U34C A39G G44A,0
14,G5U A11G U34A,0.01
15,G5U A11U A39G,0
16,G5U A11U C15U C46U,0.03
17,G5U A11U U20G,0.01
18,G5U A12C C13A G21C,0.03
19,G5U A12C U28A U32G,0.02
20,G5U A12G A16U,0.05
21,G5U A12G G29A,0.03
22,G5U A12U A25U,0.06
23,G5U A12U A25U G36A C45A,0.03
24,G5U A12U C13U C15U G22U C31A C42U,0.03

row,Variant,self-cleavage
1,G5U A12U G21C C37A C46U,0.01
2,G5U A12U G22A G27A U28C C42U,0
3,G5U A12U G30A G35C C37U,0.09
4,G5U A14C A26G G35U G44U C45A,0.01
5,G5U A14C G21C C31U,0.23
6,G5U A14C G21U G40U,0.03
7,G5U A14C U28A U32G U34G,0.03
8,G5U A14G C15G A26U G29A A41U U43G,0.01
9,G5U A14G G19U G35C U43A,0.02
10,G5U A14G G21A,0.14
11,G5U A14G G22A C45A,0.03
12,G5U A14G G35U,0.12
13,G5U A14U A16C G33C,0.05
14,G5U A14U A16G U20C G29U,0.03
15,G5U A14U A16U,0
16,G5U A14U C15U U28C,0.03
17,G5U A14U G21U,0.01
18,G5U A16C C42A,0.07
19,G5U A16C G27C G40A,0.01
20,G5U A16G G30C C31G A41C,0
21,G5U A16U C46G,0.08
22,G5U A16U G21U,0.08
23,G5U A16U G33A G36A,0.04
24,G5U A24C G27A C46G,0

row,Variant,self-cleavage
1,G5U A24G G27C,0.09
2,G5U A24G G35U,0.01
3,G5U A24U C31G,0.03
4,G5U A24U G40C G44A C45A,0.01
5,G5U A25C C46U,0.04
6,G5U A25G G33U C45U,0.07
7,G5U A25G G40A,0.03
8,G5U A25U G33U G35C,0.07
9,G5U A25U G35A G36U C37A,0.09
10,G5U A26C U38G,0
11,G5U A39G U43C,0.1
12,G5U A41C G44A,0.08
13,G5U C8A A14G G40U,0.2
14,G5U C8A C10A,0.02
15,G5U C8A C10A C31G C37G,0
16,G5U C8A C10U G44U C45A,0.05
17,G5U C8A C15U G17A A25G,0.29
18,G5U C8A C46A,0.27
19,G5U C8A G17A G22U A41U,0.27
20,G5U C8A G36U,0.17
21,G5U C8G A11G G27A C31A,0.02
22,G5U C8G A14G G22U,0.09
23,G5U C8G C15U G27U,0.06
24,G5U C8G G19A U32A G33A,0.2

row,Variant,self-cleavage
1,G5U C8G G21C G22A C23G G29U C31U G40A G44A,0
2,G5U C8G G35U U38G,0.05
3,G5U C8G U34G,0.03
4,G5U C8U C10A G22A C37A,0.02
5,G5U C8U C13A A41C,0.06
6,G5U C8U C13U A24C A41G C45A,0.18
7,G5U C8U C23A G33A G35A,0.02
8,G5U C8U G30A C31U A39U,0.1
9,G5U C8U U9A G19C C23A U32C,0.06
10,G5U C8U U9C U34A G40C U43A G44A,0
11,G5U C10A A11U C23A G36U,0
12,G5U C10A A16C G21U G36U,0.06
13,G5U C10A A25G,0.02
14,G5U C10A A41U,0.03
15,G5U C10A C23U C37U,0.03
16,G5U C10A G19U U38C,0
17,G5U C10A G27U C31G C46G,0.01
18,G5U C10A U20A G40A,0.04
19,G5U C10A U28C G35U,0.02
20,G5U C10G A41C,0.03
21,G5U C10G C13A,0.04
22,G5U C10G C15U A24G,0.01
23,G5U C10G C23A,0.01
24,G5U C10G G27A C31G C42A G44U C45U,0.01

row,Variant,self-cleavage
1,G5U C10U A26U,0.03
2,G5U C10U C15A G36U,0.07
3,G5U C10U C37U,0.02
4,G5U C10U C42U U43A G44C,0.02
5,G5U C10U G17C U34C,0.04
6,G5U C10U G22U G35A,0.03
7,G5U C10U G27U C31A C37A G44A,0.01
8,G5U C10U G35C,0.09
9,G5U C10U U20A U28A G40C,0.01
10,G5U C13A A16G U28G,0.02
11,G5U C13G C23U C45G,0.02
12,G5U C13G G35U,0.17
13,G5U C13G U20C G22A G29U G35U,0.1
14,G5U C13G U38A,0.07
15,G5U C13U A25U G35U C45G,0.01
16,G5U C13U C45A,0.04
17,G5U C13U C45G,0.05
18,G5U C13U G19A U20A A24G,0.03
19,G5U C13U G22C G35C,0.03
20,G5U C13U G35U,0.02
21,G5U C13U U28A A41C U43C,0.02
22,G5U C13U U38A,0.05
23,G5U C15A A39G C46A,0.02
